Our source for the switch fluorescence ratio values is the supplement of paper PMC10126150.

Sequences with one replicate were seen in a single cluster, so their values are uncertain.

For this data set, the system named is ATP. The data set is described as follows: switch fluorescence ratio, 500 uM ATP over buffer (Cy3 cluster intensity, sum of 5 cycles each) (fold (ratio)); higher = stronger signal-on switching upon ATP binding; sequences stand for … in TCGTCGGCAGCGTCAGATGTGTATAAGAGACAGTTTTTTTTTTTTTTTTTTTTTTTTT…TC. The conditions noted are these: aptamer strand: ATP DNA aptamer (quencher-CACCTGGGGGAGTATTGCGGAGGAAGG + anchor), 100 nM annealed; ATP concentration: 500 uM; one replicate. An outline of the steps: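 Exposure to 500 uM ATP lasted 15 min at 22 °C before imaging, and a selection-buffer image was taken beforehand, for Cy3-labelled switching-strand clusters on a modified Illumina MiSeq flow-cell annealed to 100 nM quencher-labelled ATP aptamer. Five buffer/ATP cycles were run with NaOH stripping and re-annealing between them. The fluorescence ratio per cluster is summed target-cycle over summed buffer-cycle Cy3 intensity, averaged per switch-domain sequence. Clusters outside 100-1000 RFU were excluded.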

On to CCATCGGAGG, for which the switch fluorescence ratio was 0.988.

As to GGGAATCTTA, the switch fluorescence ratio turned out to be 0.993.

Consider CAGGAGCGTG, for which the switch fluorescence ratio amounted to 1.02.

With AGGCCGGTTC, the switch fluorescence ratio is 0.955.

Take TATAACTAAG: the switch fluorescence ratio is 0.964.

Regarding TGAATCTGTG, the switch fluorescence ratio is 1.03.

In the case of GACAGATGCC, the switch fluorescence ratio worked out at 1.05.

As to CCAATTGGTC, the switch fluorescence ratio came out at 1.06.

As for TAAGGGTCTC, the switch fluorescence ratio was 0.99.

TTACGCGAAT: the switch fluorescence ratio came to 1.06.

Turning to AAGAAAGAAG, the switch fluorescence ratio was found to be 1.02.

As for TTACTACAGT, the switch fluorescence ratio turned out to be 1.02.

For GGCTCAAACG, the switch fluorescence ratio was 0.972.

Turning to TCGAAGGTAG, the switch fluorescence ratio came to 1.04.

In the case of TACAGGCTCT, the switch fluorescence ratio is 1.06.

On to GGTAGCCTTA, for which the switch fluorescence ratio came to 1.07.

As for ACTTTACTTT, the switch fluorescence ratio stood at 1.28.

Regarding AAGTCTTTGT, the switch fluorescence ratio worked out at 0.964.

With TCGAGACTTC, the switch fluorescence ratio amounted to 0.998.

With AGTTTTGGCT, the switch fluorescence ratio turned out to be 1.01.

For the sequence GGCCTGGAGC, the switch fluorescence ratio worked out at 0.949.

Regarding GCTCCGGTTA, the switch fluorescence ratio amounted to 1.07.

For GTGGGCGAAA, the switch fluorescence ratio is 1.05.

Take CTGCATCAAC: the switch fluorescence ratio is 2.15.

For the sequence TGTGTATAAA, the switch fluorescence ratio was 1.02.

For GTTGGGTCTT, the switch fluorescence ratio came to 0.963.

In the case of GGGCTTGACG, the switch fluorescence ratio is 1.02.

As for TTCTCAACGC, the switch fluorescence ratio was determined as 1.09.

As to TTAATGTACT, the switch fluorescence ratio is 1.04.

Consider CTACTTTGTG, for which the switch fluorescence ratio was found to be 1.01.

Take CCAGTCGATT: the switch fluorescence ratio amounted to 0.942.

For the sequence GCTTGGGTCA, the switch fluorescence ratio was 0.994.

As to GCGTGTTGCT, the switch fluorescence ratio is 1.

With TTCTCACATT, the switch fluorescence ratio was determined as 1.02.

Regarding CCGTCAAGCG, the switch fluorescence ratio is 1.4.

Turning to CTATTGCTTG, the switch fluorescence ratio came to 1.01.

With AACGTATGAA, the switch fluorescence ratio was determined as 1.09.

On to TTGAGGTCAG, for which the switch fluorescence ratio worked out at 0.941.

For the sequence CTGACGCGTG, the switch fluorescence ratio came to 1.

For the sequence GGTGGCGGCT, the switch fluorescence ratio is 1.01.

Regarding CGGGTGTGCT, the switch fluorescence ratio amounted to 0.964.

Consider GTGAGAAAAG, for which the switch fluorescence ratio amounted to 1.

Regarding GTGTTGATGG, the switch fluorescence ratio came out at 0.996.

Regarding TTTGAAATAA, the switch fluorescence ratio came to 1.06.

In the case of GTTAATCAAG, the switch fluorescence ratio turned out to be 1.04.

For TTGAAGCTTG, the switch fluorescence ratio turned out to be 0.987.

TGCGGCCTCT: the switch fluorescence ratio turned out to be 1.04.

Consider TGGTTACTGC, for which the switch fluorescence ratio is 1.07.

Take ACCAATCTTA: the switch fluorescence ratio worked out at 0.954.

In the case of ATGAGTTTGA, the switch fluorescence ratio was found to be 0.992.

On to TTTATCTCCG, for which the switch fluorescence ratio was 1.16.

Consider TGAAACCTGT, for which the switch fluorescence ratio amounted to 1.03.

Turning to CGTTCTTCTT, the switch fluorescence ratio turned out to be 0.989.

GACACTGCGA: the switch fluorescence ratio came to 1.52.

Consider AATTGCCCGG, for which the switch fluorescence ratio turned out to be 1.02.

As to CTTTTCCGGG, the switch fluorescence ratio was found to be 1.

In the case of TGTATCGATA, the switch fluorescence ratio is 0.999.

Regarding GAAGGCATCT, the switch fluorescence ratio worked out at 1.06.

As for TATCGGTCAC, the switch fluorescence ratio came out at 1.

Turning to TACGAATTAA, the switch fluorescence ratio amounted to 1.02.

AGCATAGCGT: the switch fluorescence ratio was 1.03.

For TAGATGTTCA, the switch fluorescence ratio was found to be 1.04.

Turning to CCAACTTCTT, the switch fluorescence ratio came out at 0.975.

Consider CATCACTTGA, for which the switch fluorescence ratio came out at 1.05.

For the sequence ATGGGCGTCC, the switch fluorescence ratio stood at 0.945.

For CTAGCGTCGT, the switch fluorescence ratio is 1.

With AAGTACGCAA, the switch fluorescence ratio is 3.92.

Turning to GTTACTCAGT, the switch fluorescence ratio is 1.06.

For ATAGCCGACA, the switch fluorescence ratio worked out at 0.978.

With AAGCTGACAA, the switch fluorescence ratio turned out to be 1.

In the case of CAAGGTGGAG, the switch fluorescence ratio was 0.998.

In the case of CAGAGTGGTA, the switch fluorescence ratio amounted to 1.01.

Take GTTTGCTTTA: the switch fluorescence ratio was determined as 1.03.

As for TGCTCCAAAA, the switch fluorescence ratio is 1.35.

Consider TATCTGGGG, for which the switch fluorescence ratio came to 0.985.

In the case of ACAAGATCG, the switch fluorescence ratio came to 0.99.

On to TGAGCGTTAC, for which the switch fluorescence ratio stood at 2.35.

Consider TGTTGGA, for which the switch fluorescence ratio was found to be 1.

With TTTATGACTA, the switch fluorescence ratio is 1.01.
